The full ranking holds about 33,000 sequences; the median of “E-score (-0.5 to 0.5)” is about -0.012, and the highest 2% start at about 0.27. The list shows a part of the results.
Target: T1, Vhr1 (UniProt P40522)
T1 sequence: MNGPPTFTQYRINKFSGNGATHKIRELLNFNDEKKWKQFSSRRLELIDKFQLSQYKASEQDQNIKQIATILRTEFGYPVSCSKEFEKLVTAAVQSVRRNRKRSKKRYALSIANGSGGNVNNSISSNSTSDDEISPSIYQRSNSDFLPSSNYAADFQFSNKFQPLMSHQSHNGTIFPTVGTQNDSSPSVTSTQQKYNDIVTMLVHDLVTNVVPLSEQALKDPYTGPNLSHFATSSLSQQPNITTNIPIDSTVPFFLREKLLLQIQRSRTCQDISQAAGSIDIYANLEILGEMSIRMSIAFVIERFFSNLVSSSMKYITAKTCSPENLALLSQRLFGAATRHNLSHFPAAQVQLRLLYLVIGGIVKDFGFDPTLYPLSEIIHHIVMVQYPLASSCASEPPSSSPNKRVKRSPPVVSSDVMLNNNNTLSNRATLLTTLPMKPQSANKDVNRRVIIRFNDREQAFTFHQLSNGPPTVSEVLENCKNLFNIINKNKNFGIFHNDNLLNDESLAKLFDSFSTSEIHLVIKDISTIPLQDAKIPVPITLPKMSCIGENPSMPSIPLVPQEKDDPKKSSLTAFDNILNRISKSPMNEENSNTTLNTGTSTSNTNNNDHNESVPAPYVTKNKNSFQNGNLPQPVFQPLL
Assay: PBM E-score (8-mer binding enrichment) (E-score (-0.5 to 0.5)); higher = stronger / more preferred TF binding; most listed sequences are background and not binding sites
Details: protein concentration: 200 nM; construct: GST-full length
How it was run: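 The E-score, a modified Wilcoxon-Mann-Whitney statistic, was computed by the Universal PBM Analysis Suite for every ungapped eight-base word pooled with its reverse complement. Scans behind it were normalised with masliner after bound GST-tagged yeast transcription factors were detected with fluorescent anti-GST. The proteins, at about 100-200 nM, had been applied to universal all-10-mer Agilent arrays made double-stranded by primer extension.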

| Sequence | PBM E-score |
| --- | --- |
| ATGCTGTA | -0.145 |
| GAGTATCC | 0.00445 |
| CATAGACC | 0.0504 |
| GGGATCTA | -0.00565 |
| CTAACAGC | 0.0375 |
| TCGTCCCA | -0.028 |
| ATAGCCGA | -0.00472 |
| AACGCAGT | -0.0303 |
| ATTTGTAA | 0.189 |
| CAGCCCTA | -0.0088 |
| AATATATA | 0.157 |
| ACCACCAA | -0.0777 |
| ATGTGAAA | -0.115 |
| AAGTGCTC | -0.163 |
| CTCAGTGA | 0.111 |
| GCTGTAGA | -0.128 |
| ACAATTCT | -0.00366 |
| ATGATCAG | 0.0756 |
| GAGTATCA | 0.0571 |
| TCGCATCA | 0.0056 |
| CAGTAGTA | 0.161 |
| AAAACCGT | -0.213 |
| AGCTTCCT | -0.227 |
| AATCGGAA | 0.0205 |
| GGGGAGGA | 0.099 |

| Sequence | PBM E-score |
| --- | --- |
| CTTCTACA | -0.176 |
| CGCCAACA | 0.00672 |
| CTTGTAAA | -0.0609 |
| GCAGGGAA | 0.0347 |
| AGGACCCG | -0.0953 |
| ATTTCGTG | -0.0116 |
| GAACCTTA | 0.0824 |
| AGTAATGG | 0.193 |
| ATGGTTGG | -0.0568 |
| AGGAACGG | -0.0244 |
| CTTAAAGA | -0.235 |
| CATAACAG | -0.158 |
| GCCCACCA | -0.125 |
| CCCAAGCG | 0.0169 |
| AACTTGTA | -0.249 |
| ATTAACAC | 0.241 |
| CTTTGGTA | -0.231 |
| ACCATAAA | 0.138 |
| CCCAATAC | 0.0511 |
| ATTTACCC | 0.024 |
| GGAGTGTA | 0.0149 |
| GAGTGTCA | 0.158 |
| AGAGTGCA | -0.192 |
| TAGACGAA | -0.211 |
| AAGAACCC | 0.0008 |

| Sequence | PBM E-score |
| --- | --- |
| AATTGTAA | -0.0717 |
| ACAGGGAA | -0.139 |
| AGCCCAGC | -0.0142 |
| TGTTACAA | 0.13 |
| GTACTCGA | 0.0427 |
| GAGATCTA | -0.00931 |
| CATATGAA | 0.0692 |
| AGCTAATC | 0.0422 |
| TAGCCAGA | -0.173 |
| GTCCACGA | -0.121 |
| GGAGCTAC | -0.0382 |
| AGAGTCTG | -0.106 |
| ACGCTCGC | 0.0589 |
| GTGATAAA | -0.00268 |
| GCGTCCAA | -0.236 |
| TGGCGAAA | -0.102 |
| TAGCACAA | -0.0198 |
| CTTCAATA | -0.0751 |
| CAGGGAAG | -0.251 |
| CGGAGAAC | -0.26 |
| TACGCTCA | 0.00765 |
| AACGCATA | -0.00498 |
| CTGTGTTC | -0.0211 |
| CAATACCC | 0.0292 |
| TCCGAAGA | -0.0938 |

| Sequence | PBM E-score |
| --- | --- |
| CGCAATAG | 0.117 |
| CGATGGCA | 0.0704 |
| ACCGACGG | -0.0192 |
| AACAGTGA | 0.059 |
| GTACAGTA | 0.0925 |
| AGTCACAG | 0.425 |
| CCCCCGCA | -0.144 |
| CAGAAAGG | -0.171 |
| TTACGCAA | -0.00797 |
| CGAGCGTA | -0.0714 |
| CATAGCTC | 0.0738 |
| ACAGTGGA | -0.0091 |
| CAGGGTCC | -0.236 |
| CAGATTAC | 0.00776 |
| ACGATGTA | 0.0879 |
| CGATGATA | 0.0734 |
| GAATTTGA | -0.0783 |
| TAAGACTA | 0.0978 |
| GAGAATCC | -0.117 |
| CTTAATAC | 0.145 |
| ACCTCTCC | -0.28 |
| AAAGATCG | -0.136 |
| CGTCTCAG | -0.0337 |
| AACTCGAG | 0.124 |
| GAAGGGAA | -0.189 |

| Sequence | PBM E-score |
| --- | --- |
| AACTACCA | 0.0724 |
| GGTCGTCA | 0.0187 |
| CACCACGG | -0.293 |
| GCTCTGCA | -0.201 |
| AAGCTTAA | -0.0734 |
| CTAAACCC | -0.00595 |
| ATTTTGGG | -0.177 |
| CAAACTTA | -0.0449 |
| CACATACA | 0.146 |
| CACCCAGG | 0.2 |
| CCACGGAG | -0.0267 |
| AAGCTAAG | -0.272 |
| TCCAAGAA | -0.107 |
| TTCTCAAA | -0.059 |
| CCAGTTTC | -0.0294 |
| GTTGTTCA | -0.013 |
| TAGTACTA | 0.21 |
| GAATTAAA | -0.125 |
| ACCGCCGG | 0.0453 |
| CTACGTTA | -0.174 |
| ATTAGGTC | 0.0995 |
| AGCACTTA | -0.0577 |
| CTAGATCC | -0.0844 |
| CCTAAACC | -0.202 |
| GCCTGTGA | -0.0772 |

| Sequence | PBM E-score |
| --- | --- |
| GTCGTCAC | 0.0135 |
| ACGGTGAA | -0.0159 |
| ATTATTAG | -0.122 |
| GGTCTCAA | -0.0755 |
| AGCATGCT | -0.0631 |
| CGACACAG | 0.203 |
| CCCAACAA | -0.00937 |
| TCATGTAA | 0.16 |
| AAATGCGT | 0.00275 |
| AGCGGCCC | -0.187 |
| GAGTCTGA | 0.157 |
| CATAGACA | 0.084 |
| ATTTGTAC | -0.0243 |
| CAAGCCTG | 0.105 |
| ATGTTGCC | -0.186 |
| GCGTTCAC | -0.0653 |
| ACTACAGT | 0.261 |
| AAGCTACA | -0.124 |
| ATGCTTAA | -0.0317 |
| CATCACGC | 0.121 |
| AAGATTAA | 0.0153 |
| GAAACCTA | -0.197 |
| GACCCTTA | -0.11 |
| CATTCCTC | 0.129 |
| ATTGGGCG | 0.00968 |

| Sequence | PBM E-score |
| --- | --- |
| AATCACGC | 0.354 |
| CTATTTAC | 0.00675 |
| ATATATTG | 0.0713 |
| GAGCTGAA | -0.0931 |
| TATTGCGA | 0.254 |
| CTGGTATA | -0.00271 |
| TCCCGCCA | 0.0546 |
| GGCTTATA | -0.129 |
| ACCGAGTA | 0.0825 |
| ATAGAGGG | -0.00111 |
| ACTTCTCC | -0.116 |
| ATACCTAT | 0.16 |
| CGTCTCAC | -0.00514 |
| AATGCAAG | -0.123 |
| CAATCCGC | 0.0522 |
| CGAGAGAC | 0.0447 |
| GCGAGTGA | 0.172 |
| AACATCAA | 0.0279 |
| TGGTAAAA | -0.0288 |
| ACTAAGAT | 0.165 |
| CGTAGGTC | -0.172 |
| ACTTTAAT | -0.146 |

Reference: the supplement of paper PMC3334620
